How the values were obtained:
[1] = biological target: T1, human BCMA his tag protein (Acrobiosystems, BCA-H522y) (human, UniProt Q02223 1-54); assay: comp. ELISA, competitor biotin-BAFF (ligand signal), Ab 4.875 ug/mL
T1 construct: Bought protein; also called BCMA/TNFR-His; human recombinant BCMA his tag; not shown: his tag
T1 sequence (looked up): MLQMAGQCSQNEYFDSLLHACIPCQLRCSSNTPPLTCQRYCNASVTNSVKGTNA

[2] = biological target: T1, human BCMA his tag protein …; assay: comp. ELISA, competitor biotin-APRIL (ligand signal), Ab 19.5 ug/mL
[3] = biological target: T2, cynomolgus BCMA his tag (Acrobiosystems, BCA-C52H7) (cynomolgus, UniProt A0A2K5UD97 1-53); assay: ELISA on coated cynomolgus BCMA his tag
T2 construct: Bought protein; also called Cyno BCMA his tag; not shown: his tag
T2 sequence (A0A2K5UD97 entry or part of it): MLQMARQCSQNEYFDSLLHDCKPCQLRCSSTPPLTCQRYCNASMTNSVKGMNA

[4] = biological target: T1, human BCMA his tag protein …; assay: comp. ELISA, competitor biotin-APRIL (ligand signal), Ab 4.875 ug/mL
[5] = biological target: T3, human BCMA full-length protein on cells (human, UniProt Q02223 1-184); assay: flow cytometry competition on CHO-K1/BCMA cells; antibody titrated against biotin-APRIL, PE streptavidin readout
T3 construct: whole, on cells; also called CHO-K1/BCMA; BCMA on RPMI8226, Jeko-1, Daudi cells
T3 sequence (looked up): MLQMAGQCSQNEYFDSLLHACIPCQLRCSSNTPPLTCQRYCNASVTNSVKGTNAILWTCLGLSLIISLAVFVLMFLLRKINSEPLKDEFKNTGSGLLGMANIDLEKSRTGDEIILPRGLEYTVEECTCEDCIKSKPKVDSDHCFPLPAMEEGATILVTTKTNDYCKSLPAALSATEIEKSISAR

[6] = biological target: T3, human BCMA full-length protein on cells; assay: flow cytometry on CHO-K1/BCMA cells, anti-human IgG PE
[7] = biological target: T4, mouse BCMA his tag (Acrobiosystems, BCA-M52H3) (mouse, UniProt O88472 1-49); assay: ELISA on coated mouse BCMA his tag
T4 construct: Bought protein; also called murine BCMA; not shown: his tag
T4 chain (looked up): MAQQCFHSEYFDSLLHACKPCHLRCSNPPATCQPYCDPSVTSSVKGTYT

[8] = biological target: T5, biotin-TACI (Acrobiosystems, TAI-H82F6) (human, UniProt O14836 2-166, limits assumed, biotin); assay: ELISA, antibody coated, biotin-TACI in solution
T5 construct: Bought protein; also called human TACI
T5 sequence (looked up): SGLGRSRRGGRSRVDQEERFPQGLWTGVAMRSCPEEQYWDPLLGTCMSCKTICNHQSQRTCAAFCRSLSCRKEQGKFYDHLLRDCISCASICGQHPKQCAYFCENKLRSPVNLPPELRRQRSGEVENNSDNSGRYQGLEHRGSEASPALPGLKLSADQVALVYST

[9] = biological target: T1, human BCMA his tag protein …; assay: comp. ELISA, competitor biotin-APRIL (ligand signal), Ab 1.218 ug/mL
[10] = biological target: T6, biotin-BAFFR (Acrobiosystems, BAR-H5257) (human, UniProt Q96RJ3 7-71, limits assumed, biotin); assay: ELISA, antibody coated, biotin-BAFFR in solution
T6 construct: Bought protein; also called human BAFFR
T6 sequence (looked up): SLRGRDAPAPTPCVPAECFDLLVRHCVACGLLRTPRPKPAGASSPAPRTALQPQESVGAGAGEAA

[11] = biological target: T1, human BCMA his tag protein …; assay: comp. ELISA, competitor biotin-APRIL (ligand signal), Ab 78 ug/mL
[12] = biological target: T1, human BCMA his tag protein …; assay: comp. ELISA, competitor biotin-BAFF (ligand signal), Ab 19.5 ug/mL
[13] = biological target: T1, human BCMA his tag protein …; assay: SPR Biacore T200, antibody captured on protein A, BCMA His analyte, 1:1 fit
[14] = biological target: T1, human BCMA his tag protein …; assay: comp. ELISA, competitor biotin-BAFF (ligand signal), Ab 78 ug/mL
[15] = biological target: T1, human BCMA his tag protein …; assay: comp. ELISA, competitor biotin-BAFF (ligand signal), Ab 1.218 ug/mL

B1: NB-67 (Fc fusion)
heavy: QVQLVESGGGLVQPGGSLRLSCTASGSIFSIYAMGWYRQAPGKPRELVAAITSGSSTFYRDSVKGRFTISRDNAKNTVYLRMNSLKPEDTAVYYCNPAPWGDYTATDFHSWGQGTQVTVSS[human IgG1 Fc with changes not written out]
notes: also called NB-67 antibody; VHH-hIgG4
[1]
  OD450: 0.82 OD450
[2]
  OD450: 0.32 OD450
[3]
  binding result: no binding (tested: 2 µg/mL)
[4]
  OD450: 1.49 OD450
[5]
  IC50: 30.3 nM
[6]
  EC50: 1.76 nM
[7]
  binding result: no binding (tested: 2 µg/mL)
[8]
  binding result: no binding (tested: 4 µg/mL)
[9]
  OD450: 2.89 OD450
[10]
  binding result: no binding (tested: 4 µg/mL)
[11]
  OD450: 0.08 OD450
[12]
  OD450: 0.03 OD450
[13]
  Kd: 0.0495 nM
  koff: 0.000296 s⁻¹
  kon: 5.98e+06 M⁻¹ s⁻¹
[14]
  OD450: 0.02 OD450
[15]
  OD450: 3.23 OD450

B2: NB-222 (Fc fusion)
heavy: QVQLVESGGGLVQPGGSLRLSCAASGSIDRFYAMGWYRQAPGKSRTLVTAITSGGSTYYADSVKGRFTISRDNAKNMLYLQMNSLKPEDTAVYYCNAAPWGDYTAHDFASWGQGTQVTVSS[human IgG1 Fc with changes not written out]
notes: also called NB-222 antibody; VHH-hIgG4
[3]
  binding result: no binding (tested: 2 µg/mL)
[5]
  IC50: 44.7 nM
[7]
  binding result: no binding (tested: 2 µg/mL)
[8]
  binding result: no binding (tested: 4 µg/mL)
[10]
  binding result: no binding (tested: 4 µg/mL)
[13]
  Kd: 0.00731 nM
  koff: 7.02e-05 s⁻¹
  kon: 9.61e+06 M⁻¹ s⁻¹

B3: NB-217 (Fc fusion)
heavy: EVQLVESGGGTVQPGGSLRLSCVASGFTFSPSAMSWVRQAPGKGLEWVSGIYSDGSTRYADSVKGRFTISRDNVKNTVYLQMNSLNPEDTAVYYCAVGIVVPYSEDAWYSTLRGQGTQVTVSS[human IgG1 Fc with changes not written out]
notes: also called NB-217 antibody; VHH-hIgG4
[3]
  binding result: no binding (tested: 2 µg/mL)
[7]
  binding result: no binding (tested: 2 µg/mL)
[8]
  binding result: no binding (tested: 4 µg/mL)
[10]
  binding result: no binding (tested: 4 µg/mL)
